Source: the supplement of paper PMC5499739
Over roughly 16,000 sequences, “Z-score” has its median near -0.37; the highest 2% begin near 3.1. The list shows a part of the results.

tested on: RBM10 RRM1-ZnF-RRM2 (GST-tagged construct); assay: RNAcompete 7-mer binding Z-score; higher = stronger binding preference
Description: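 RNAcompete: 20 pmol GST-tagged RBM10 RNA-binding constructs were incubated with a designed RNA pool of about 241,000 sequences up to 41 nt (1.5 nmol) on glutathione beads for 30 min at 4 °C and washed. Bound RNAs were identified by microarray hybridisation. Each RNA 7-mer is scored by a one-sided Z-score of its enrichment, computed over probes that contain the 7-mer within longer pool sequences.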

Sequence | RNAcompete 7-mer binding Z-score
GUUAGCU | -0.347
UGAUACG | 0.108
UAUACUC | -0.795
CCCUUAA | -0.832
CUGUCCG | -0.744
AGAAGUU | -0.0743
CGAUUCG | -0.49
CACCAAU | -0.57
GUGACCU | -0.573
GGGGAUG | 3.68
GUCGAGG | 1.9
AUUGCUG | -0.267
CAAGCGU | -0.329
GCCCUUU | -0.992
UAGUGGC | 0.756
UUUGCGA | -0.69
ACACCCC | -0.497
GCAGCCG | -0.191
UACGUCU | -0.836
CUGUCGG | -0.446
AGGGUCG | 1.61
UUAACUC | -0.865
CCUUGCA | -0.872
AUUCUAG | -0.544

Sequence | RNAcompete 7-mer binding Z-score
AUGCGUG | 0.563
ACUGCUU | -1.02
CUAAUCU | -0.865
GUGAAAG | 1.55
AUCAUAC | -0.464
AGCCCGA | -0.694
UUUUAAC | -0.741
GUCGCCA | -0.555
AUUGACU | -0.581
UCGAAAG | -0.00148
AUAGGUU | 1.49
UACACAA | -0.289
ACCUUGG | -0.431
AGGCAGA | 1.07
GCUGUUU | -0.777
UGGUGGG | 4.04
AGUAAGA | 0.541
CAAUGGA | 1.4
GGUGGGA | 3.75
AGUUUUU | -0.522
CAAGUUG | -0.0415
GGACGGC | 1.05
AAGAGUA | 1.2
GAGCACG | 0.377

Sequence | RNAcompete 7-mer binding Z-score
GGUACAG | 2.31
CCUGGGU | 0.326
UAUUUUU | -0.795
GCCGAAC | -0.486
GAUAGGG | 4.38
UAAGGGC | 1.51
CCUAAGG | -0.395
UACUUGU | -0.752
UUCGCGC | -0.85
CUGCAUC | -0.814
UAGGAGG | 2.94
GCGUUUG | -0.22
ACAUAAG | -0.0634
GACGGCA | 0.439
CAAGUUC | -0.566
GGACAGC | 1.07
GCCGGAU | -0.0161
UUUCGAA | -0.584
ACCACUG | -0.468
UUCCCUU | -0.825
GCUGGUU | 0.232
ACCGUGU | -0.34
UCUCCUC | -0.664
UGCUGUA | -0.504

Sequence | RNAcompete 7-mer binding Z-score
CACGCAG | -0.165
CCGGACC | -0.712
GCUCUGU | -0.723
GAUACAG | 0.949
CUUCUCU | -0.854
CAAUCCA | -0.511
GAUUCGG | 0.865
ACUCCAC | -0.781
AUCUUCU | -0.803
ACGACCC | -0.61
CUUUGUG | -0.595
GAAUAGC | 0.0532
ACAAUAU | -0.286
CGGUCAG | 0.166
CACUGUG | -0.471
GGAGAUG | 2.79
AUCCUCC | -0.846
UCCCACG | -0.675
CACGAGA | -0.191
CCAACUG | -0.653
ACUUGUG | -0.621
CCAUUUC | -1.01
UUAAUAA | -0.559
AUCAAUA | -0.078

Sequence | RNAcompete 7-mer binding Z-score
GUUACAC | -0.154
UAAAUAA | -0.264
GCUGCCU | -0.613
ACAGUUU | -0.617
AGUGUGA | 0.574
UCAACCG | -0.646
AAGGCAA | 1.95
CGCAUGU | -0.479
UAUCAGC | -0.77
CCUGAUG | -0.668
CCGAAGC | -0.657
UGUGAAG | 0.829
CCAGUAU | -0.471
CAUUCGC | -0.774
GAGACCU | -0.788
AUUAAUG | 0.075
UCCAGAU | -0.555
ACCCUCC | -0.916
ACCAGGU | 0.399
AGUUGCC | -0.65
ACGCUGG | 0.286
